Out of some 52,000 compounds screened, about 4,300 (8.3%) were called active. Rule as the data show it: active = survival mostly below about 52% (no sharp cut-off); inactive = mostly above about 56%. The list shows a part of the results.
Each compound was assayed on DeltatarO mutant (assay: S. aureus survival, RN4220 and DeltatarO strains – OD600, teichoic acid synthesis inhibitors, primary screen (AID 463173)). Conditions: S. aureus RN4220 wild type/DeltatarO growth, OD600, 18 h, hits give low values, screened at 18.75 µg/mL (by protocol).

SMILES	survival
CNC(=O)c1sc2ncccc2c1-n1cccc1	inactive: 124%
CCCS(=O)(=O)N1CC(=O)N(c2ccccc2C)C(C)(C(=O)NC2CCCC2)C1 (centres undefined)	inactive: 73%
Cc1cccc(-n2ncc(C(=O)NCc3ccccn3)c2C2CCN(C(=O)OC(C)(C)C)CC2)c1	inactive: 83%
CCCCN1C(=O)CN(C2CCCCC2)C(=O)C1c1ccc(OC(C)C)c(OC)c1 (centres undefined)	inactive: 91%
O=C(CN1CCCCC1)N/N=C/c1ccc(Cl)cc1	inactive: 72%
CCN1CCN(Cc2c(O)ccc3c(C)c(-c4ccccc4)c(=O)oc23)CC1	inactive: 78%
COc1ccc2cc(CN(CC3COCCO3)S(=O)(=O)c3c(C)cc(C)cc3C)c(=O)[nH]c2c1 (centres undefined)	inactive: 72%
Cc1cccc(NC(=O)c2oc3ccccc3c2NC(=O)c2cc(=O)c3cc(Cl)ccc3o2)c1	active: 43%
COc1ccc(C)cc1NC(=O)CSc1ccc(-c2ccccn2)nn1	inactive: 28%
COc1ccc(CNC(=O)C2CCCN2)cc1OC (centres undefined)	inactive: 70%
COc1ccccc1C(=O)Nc1c(C(=O)N(C)c2ccccc2)sc2nc(C)cc(C)c12	inactive: 58%
O=C1CCCN1C(=O)CCC(=O)N1CCCC1=O	inactive: 100%
CCOC(=O)c1c(C(F)(F)F)cc(-c2ccccc2)nc1C	inactive: 98%
CCOc1ccc(C(=O)Nc2cc(-c3cn4cccnc4n3)ccc2C)cc1OCC	inactive: 62%
COc1ccc(CCNC(=O)c2c(C)oc3ncn(CC(C)C)c(=O)c23)cc1OC	inactive: 81%
CCn1cc(C(=O)NCCc2ccc(C)cc2)c(=O)c2cc(S(=O)(=O)N3CCCCC3)ccc21	inactive: 122%
Cc1cc(C)cc(NC(=O)C2CCC(CNS(=O)(=O)c3ccc4c(c3)C(C)(C)C(=O)N4C)CC2)c1 (centres undefined)	inactive: 102%
Cn1c(=O)c2sccc2n2c(CCC(=O)NCc3ccccc3Cl)nnc12	inactive: 185%
COc1ccc(CNC(=O)C2CCN(C(=O)N3CC(C)Oc4ccc(C)cc43)CC2)cc1 (centres undefined)	inactive: 105%
CN(Cc1ccccc1)C(=O)C1CCN(S(=O)(=O)c2ccc3nc4c(c(C(=O)O)c3c2)CCCC4)CC1	inactive: 66%
O=C(CCS(=O)(=O)c1cc(Br)cc2c1N(C(=O)C1CC1)CC2)Nc1ccc(C(F)(F)F)cc1	inactive: 93%
O=C(NC1CCCC1)C1C2C=CC(C2)C1C(=O)N1CCOCC1 (centres undefined)	inactive: 102%
COc1ccc(-c2nc(Cn3c(SCc4ccccc4F)nc4ccncc43)c(C)o2)cc1OC	inactive: 62%

SMILES	survival
Cc1ccc(S(=O)(=O)Nc2nc3n(n2)C(c2ccccc2Cl)C=C(c2ccccc2)N3)cc1 (centres undefined)	active: 37%
COc1cccc(C(=O)Nc2ccccc2-c2nnc(-c3cc(OC)ccc3Br)o2)c1	inactive: 79%
O=C(Cc1ccc(Cl)cc1)NCC(c1cccs1)S(=O)(=O)c1ccc(F)cc1 (centres undefined)	inactive: 95%
Cn1cnc(S(=O)(=O)N2CCC(C(=O)NCc3ccc(F)cc3)CC2)c1	inactive: 57%
COc1ccc(C2=C(C)C(=O)N(Cc3ccc(C(=O)Nc4cc(C)ccc4C)cc3)S2(=O)=O)cc1	inactive: 77%
Cc1cccc(N2CCN(CCCNC(=O)c3nnc(Cc4c(F)cccc4Cl)o3)CC2C)c1 (centres undefined)	inactive: 74%
O=C(Cn1c(=O)n(-c2ccc(Cl)cc2)c(=O)c2oc3ccccc3c21)Nc1ccccc1	inactive: 99%
CCc1ccc2[nH]c(=O)c(C(c3nnnn3C3CCCCC3)N3CCCC3)cc2c1 (centres undefined)	inactive: 90%
CC1CCN(c2ncnc3c2nnn3C)CC1	inactive: 92%
CCN(CC)S(=O)(=O)c1nnc(NC(=O)c2ccc(C(C)C)cc2)s1	active: 44%
O=C(c1ccco1)N1CCN(c2nc3c(Cl)cccc3s2)CC1	inactive: 118%
CCOC(=O)c1[nH]c2c(c1Cc1ccccc1OC)C(=O)CC(c1ccc(OCC)cc1)C2 (centres undefined)	inactive: 95%
O=C(NCc1ccc2c(c1)OCO2)c1ccccc1Cl	inactive: 62%
COc1ccc(C(=O)CCC(=O)Nc2ccc(OC)c(Cl)c2)cc1	inactive: 86%
CCN(CC)S(=O)(=O)c1ccc2c(c1)N(CC(=O)Nc1ccc(C)cc1C)C(=O)C1CCCN21 (centres undefined)	inactive: 86%
COc1ccccc1N1CCN(c2nc3ccc(C)cc3n3nnnc23)CC1	inactive: 128%
CC(C)NC(=O)c1ccccc1NC(=O)c1nsc2ccccc12	inactive: 54%
Cc1ccc(S(=O)(=O)c2nc(S(C)(=O)=O)sc2NCc2ccccc2)cc1	inactive: 76%
CCOC(=O)c1c(C)oc2nc(C)nc(NCCc3ccc(SC)cc3)c12	inactive: 83%
COc1cc(NC(=O)Cn2nc(-c3ccc(C)c(C)c3)ccc2=O)cc(OC)c1	inactive: 71%
CC(C)COC(=O)Cc1c(O)c2ccccc2[nH]c1=O	active: 39%
Cc1nn2c(=O)cc(COC(=O)c3cccc(NC(=O)c4ccc(C(C)(C)C)cc4)c3)nc2s1	inactive: 85%
O=C(COC(=O)c1cccc(NC(=O)c2ccc(Br)cc2)c1)c1ccc(Br)cc1	inactive: 64%

SMILES	survival
CC1SC(NC(=O)COc2ccccc2)=NC1=O (centres undefined)	inactive: 78%
CCc1ccc(NCc2cc3cc(OC)c(OC)cc3n(CC(=O)Nc3cc(C)ccc3C)c2=O)cc1	inactive: 75%
CN(C(=O)CN1C(=O)CCSc2ccc(S(=O)(=O)N3CCCC3)cc21)c1ccccc1	inactive: 76%
Cc1cccc(C)c1Nc1nc2ccccc2nc1NS(=O)(=O)c1ccccc1	inactive: 79%
CCC(C)OC(=O)/C(C#N)=C\c1ccc(-c2cccc(C(F)(F)F)c2)o1 (centres undefined)	inactive: 64%
COc1ccc(S(=O)(=O)N(CC(=O)NCc2ccccc2)c2ccc(C)cc2)cc1OC	inactive: 69%
O=S(=O)(c1ccc2c(c1)CCN2)N1CCCCCC1	inactive: 85%
Cc1ccc2c(c1)c1c(c(=O)n(Cc3ccccc3)c(=O)n1CC(=O)NCc1ccccc1Cl)n2C	inactive: 71%
Cc1cc(O)c(C(c2ccccc2)N2CCN(C)CC2)c(=O)n1Cc1ccco1 (centres undefined)	inactive: 112%
O=C(Nc1ccccc1)N(Cc1ccc(F)cc1)c1ccccn1	inactive: 56%
C=Cc1ccc(CN2C(=O)c3ccccc3Sc3ccc(C(=O)OCc4ccco4)cc32)cc1	inactive: 78%
COc1ccc(-c2noc(CN(C(C)C)S(=O)(=O)c3ccc(Br)cc3)n2)cc1	active: 44%
CC1=C(C(=O)N2CCN(c3cccc(C)c3C)CC2)C2(CCCCC2)OC1=O	inactive: 80%
Cc1cccc(NC2=CC(c3cccc(Br)c3)N(c3cccc(C)c3)C2=O)c1 (centres undefined)	inactive: 137%
CCOC(=O)c1c(C)[nH]c(C)c1S(=O)(=O)NCC(=O)N1CCN(c2cccc(C)c2)C(C)C1 (centres undefined)	inactive: 108%
CCOC(=O)c1cc(=O)n2[nH]c(-c3ccc(Br)cc3)cc2n1	inactive: 93%
O=C(Cn1c(=O)nc(-c2ccccc2)c2ccccc21)NCc1ccc(F)cc1	inactive: 98%
O=C(c1ccccc1)N(Cc1ccc2c(c1)OCO2)Cc1nc2ccccc2c(=O)[nH]1	inactive: 77%
Cc1ccccc1-c1noc(-c2cccnc2N(C)Cc2ccc(Cl)cc2)n1	inactive: 56%
O=C(C1CC1)N1CCN(c2nc3c(Cl)cccc3s2)CC1	inactive: 77%
Fc1ccc(Cc2cn3cc(-c4ccccc4)nc3s2)cc1	active: 51%
COc1ccc(CCNC(=O)CSc2nnnn2-c2cccc(C(C)=O)c2)cc1OC	inactive: 64%
CCOC(=O)c1cccc(NC(=O)CCC(=O)N2CC(C)Oc3ccc(C)cc32)c1 (centres undefined)	inactive: 51%

SMILES	survival
CCN(CC)CCCNC(=O)c1ccc2c(c1)NC(=O)C(CS(=O)(=O)Cc1cccc(Br)c1)N2 (centres undefined)	inactive: 128%
Cc1ccc(CNC(=O)c2c(O)nc3c(C)cccn3c2=O)cc1	inactive: 64%
Cc1ccc(C)c2[nH]c(=O)c(CN(Cc3ccco3)Cc3nnnn3C(C)(C)C)cc12	inactive: 81%
O=C1CCC(=O)N1CC(=O)N1CCCc2ccccc21	inactive: 85%
Cc1nc2ccc(S(=O)(=O)NC(CC(C)C)C(=O)N3CCN(c4ccc(F)cc4)CC3)cc2s1 (centres undefined)	inactive: 70%
CC1Oc2ccccc2N(CC(=O)NC2CCCC2)C1=O (centres undefined)	inactive: 57%
COc1ccc(Br)cc1CNC(=O)c1nn(-c2ccc(C)cc2)c(=O)c2c1c1ccccc1n2C	inactive: 131%
Cc1ccc(NC(=O)C2CCCN2S(=O)(=O)c2cccc3nsnc23)cc1Cl (centres undefined)	inactive: 57%
COc1ccc(CNC(=O)CSc2ncc(S(=O)(=O)c3ccc(C)c(Cl)c3)c(=O)[nH]2)cc1	inactive: 80%
C=CCC(C)(NCc1ccccc1)c1ccco1 (centres undefined)	inactive: 110%
CC1CCN(S(=O)(=O)c2ccc3c(c2)CCN3C(=O)Nc2ccc(Br)cc2)CC1	inactive: 69%
Cc1c(C(=O)Nc2ccc(C(C)C)cc2)sc2nc[nH]c(=O)c12	inactive: 77%
O=C1c2cccc3c(N4CCNCC4)ccc(c23)C(=O)N1c1ccc(Cl)cc1	inactive: 95%
CC1CCN(S(=O)(=O)c2ccc3c(c2)N(CC(=O)NC(C)C)C(=O)CO3)CC1	inactive: 76%
Cc1ccc(-c2nnc(Nc3ccc(Cl)c(Cl)c3)c3ccccc23)cc1S(=O)(=O)NCCO	inactive: 79%
COc1cccc(CNC(=O)CSc2ncc(S(=O)(=O)c3ccc(Br)cc3)c(=O)[nH]2)c1	inactive: 72%
COc1ccc(CCNC(=O)c2ccc(CS(=O)(=O)Cc3cccc(C)c3)o2)cc1OC	inactive: 80%
CCN1CCN(C(c2ccc(F)cc2)c2c(O)cc(C)n(CCOC)c2=O)CC1 (centres undefined)	inactive: 79%
CN(C)c1ccc(C(=O)NC2CCSC2=O)cc1 (centres undefined)	inactive: 66%
CCc1cccc2c(-c3ccc(F)cc3)nc(SCC(=O)Nc3ccccc3)nc12	inactive: 93%

Reference: PubChem BioAssay AID463173 (ICCB-Longwood Screening Facility, Harvard Medical School, 2010)
